Measured values reported in PubChem BioAssay AID360 (National Center for Advancing Translational Sciences (NCATS), 2006).
Among all 48,000 compounds or so, about 550 (1.1%) were called active. Another 4% or so got no clear call; they are omitted. Rule as the data show it: active = potency below about 15 µM; inconclusive = mostly about 16 µM to 33 µM; inactive = weaker than that. The list shows a part of the results.

The compounds below were run against Lysosomal acid glucosylceramidase (Homo sapiens) (UniProt P04062) (assay: Glucocerebrosidase). Details: purified enzyme, resorufin glucoside fluorescence (screen aimed at inhibitors), 20 min.
UniProt P04062, sequence (P04062 whole entry, looked up): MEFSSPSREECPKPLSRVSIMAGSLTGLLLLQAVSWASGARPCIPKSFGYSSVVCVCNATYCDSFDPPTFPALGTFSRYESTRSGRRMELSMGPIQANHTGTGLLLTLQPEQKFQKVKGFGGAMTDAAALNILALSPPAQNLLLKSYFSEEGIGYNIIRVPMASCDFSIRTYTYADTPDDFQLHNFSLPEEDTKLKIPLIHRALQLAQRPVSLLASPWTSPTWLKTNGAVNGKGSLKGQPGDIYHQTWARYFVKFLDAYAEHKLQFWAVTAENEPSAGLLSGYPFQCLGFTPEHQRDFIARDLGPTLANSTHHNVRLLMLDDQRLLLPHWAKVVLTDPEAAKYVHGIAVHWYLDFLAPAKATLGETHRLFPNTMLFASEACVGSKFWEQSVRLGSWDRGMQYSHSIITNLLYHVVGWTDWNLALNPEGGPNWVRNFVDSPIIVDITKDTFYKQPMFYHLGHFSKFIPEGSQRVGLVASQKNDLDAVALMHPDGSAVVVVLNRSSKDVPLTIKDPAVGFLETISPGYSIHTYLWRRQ
Outline: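 Normal human glucocerebrosidase (0.2 nM final) was assayed with resorufin β-D-glucopyranoside (30 uM final) in 50mM citric acid/KH2PO4, 10mM sodium taurocholate, 0.01% tween-20, pH 5.9. Compounds were titrated; fluorescence (Ex 548, Em 600) read after 20 min at RT.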
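Also: the screen sought inhibitors.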
Potency is read from the fitted curve at half-maximal effect.

Potency, inactive:
Cc1c[n+]([O-])n(-c2ccc(C(=O)O)cc2)n1 > 76.9 µM, CC1CCCCC1NC(=O)CN1C(=O)NC(C)(c2ccc(OC(F)F)cc2)C1=O (stereo not given) > 76.9 µM, COc1cc(C2/C(=C(\O)c3ccc4c(c3)CC(C)O4)C(=O)C(=O)N2CCCn2ccnc2)ccc1O (stereo not given) > 76.9 µM, CCN(CCCNC(=O)CN(C)S(=O)(=O)c1ccc2c(c1)CCC(=O)N2)c1cccc(C)c1 > 76.9 µM, CN(C)S(=O)(=O)c1cccc(C(=O)NCc2ccco2)c1 > 76.9 µM, N#Cc1nc(-c2cccs2)oc1N1CCOCC1 > 76.9 µM, CN(CC(=O)N1CCc2ccccc21)S(=O)(=O)c1cccs1 > 76.9 µM, CCOC(=O)C1=C(N)OC2=C(C(=O)CC(C)(C)C2)C1c1ccco1 (stereo not given) > 76.9 µM, COc1cccc(C(=O)NCC2CCN(c3ccc(S(=O)(=O)N4CCOCC4)cc3)CC2)c1 > 76.9 µM, COCc1cc(C)nc2sc(C(=O)OC(C)C)c(N)c12 > 76.9 µM, O=C(CCNS(=O)(=O)c1ccc(Br)s1)NC1CCCC1 > 76.9 µM, CC1Cc2ccccc2N1C(=O)Cn1nc(C(=O)O)c2ccccc2c1=O (stereo not given) > 76.9 µM, CC(OC(=O)c1cc2sccc2n1C)C(=O)NCc1ccc2c(c1)OCO2 (stereo not given) > 76.9 µM, O=C(NCCc1ccccc1)C1CCN(S(=O)(=O)c2ccc(-n3cnnn3)cc2)CC1 > 76.9 µM, COc1ccc2[nH]c(=O)c(CNC3CCCCC3)cc2c1 > 76.9 µM, CCOC(=O)C1=C(C)NC(=O)CC1c1ccccc1 (stereo not given) > 76.9 µM, O=C(NCc1cccnc1)c1ccc2c(c1)OCO2 > 76.9 µM, Cc1nc2ccc(NC(=O)N3CCSCC3)cc2s1 > 76.9 µM, O=C(O)CCCCCNS(=O)(=O)c1c(Cl)cccc1Cl > 76.9 µM, O=C(c1ccccc1)c1ccccc1C(=O)N1CCOCC1 > 76.9 µM, CCn1c2ccccc2c2cc(NC(=O)N3CCOCC3)ccc21 > 76.9 µM, O=C(CCCSc1nc2ccccc2[nH]1)NC1=NCCS1, COC(=O)C1=C(C)N(c2ccc(C(=O)OC)cc2)C(=O)C1 > 76.9 µM, CC(C)C(c1nnnn1Cc1ccco1)N1CCN(c2nc3ccccc3s2)CC1 (stereo not given) > 76.9 µM, CNC(=O)c1cccc(N2CCCC2=O)c1 > 76.9 µM, Cc1noc(C)c1CSc1nnc2c(C)cc3ccccc3n12 > 76.9 µM, Nc1nc(SCCOc2ccccc2)n[nH]1 > 76.9 µM, O=C(CSc1nc(-c2ccco2)cc(C(F)(F)F)n1)NCc1cccs1 > 76.9 µM, CCCS(=O)(=O)N1CCN(Cc2ccccc2C(F)(F)F)CC1 > 76.9 µM, CC(=O)NS(=O)(=O)c1ccccc1 > 76.9 µM, COc1cc2c(cc1OC)C(C(=O)NCC1COc3ccccc3O1)C(c1cccnc1)N(C)C2=O (stereo not given) > 76.9 µM, COc1cc(NC(=O)c2cc3nc(C)cc(C)n3n2)c(OC)cc1Cl, COC(=O)[C@@H](NC(=O)NCc1cccs1)C(C)C > 76.9 µM, CC(=O)Nc1cc(S(=O)(=O)C(F)(F)F)ccc1Cl > 76.9 µM, CC(C)(C)n1ncc2c(=O)n(CC(=O)NCc3ccccc3)cnc21 > 76.9 µM, CC(C)c1ccccc1NC(=O)c1cccnc1 > 76.9 µM, O=C(CSC1=NCCS1)N1CCN(c2ccccc2)CC1 > 76.9 µM, CCN(CC)C(=O)c1sc2nc(-c3ccc(OC)cc3)cn2c1C > 76.9 µM, CCn1c(SCC(=O)c2cc(OC)ccc2OC)nc2c1c(=O)n(C)c(=O)n2C > 76.9 µM, CC1CCc2c(sc3c2C2=NS(=O)(=O)CCN2C=N3)C1 (stereo not given) > 76.9 µM, Cc1cc(C(=O)CSc2nnc(-c3ccco3)o2)c(C)n1Cc1ccco1 > 76.9 µM, COc1ccc(CCN2CC34C=CC(O3)C(C(=O)NCc3ccccc3)C4C2=O)cc1OC (stereo not given) > 76.9 µM, O=C(CC(SCCO)c1ccc2c(c1)OCO2)c1ccco1 (stereo not given) > 76.9 µM, O=C(O)CCC(=O)OC1CC2CCC1C2 (stereo not given) > 76.9 µM, Fc1ccc(-c2csc3nnc(SCc4cccnc4)n23)cc1 > 76.9 µM, CC1CC(C)CN(C(=O)COC(=O)CNS(=O)(=O)/C=C/c2ccccc2)C1 (stereo not given) > 76.9 µM, N#Cc1nc(Cc2ccccc2)oc1N1CCC(Cc2ccccc2)CC1 > 76.9 µM, O=C(CSc1nc2nc[nH]c2c(=O)[nH]1)NC1CCCCC1 > 76.9 µM, CCN(C#N)c1nc(NC(C)C)nc(NC(C)C)n1 > 76.9 µM, c1ccc(-c2noc(-c3ccc4c(c3)OCO4)n2)nc1 > 76.9 µM, Cc1cccc(C(C)C)c1NC(=O)c1cccnc1 > 76.9 µM, CN(Cc1ccccc1)Cc1nc2c(c(=O)n(C)c(=O)n2C)n1CCc1ccccc1 > 76.9 µM, COc1cc2nc(C3CCC3)n(NC(=O)COc3ccccc3)c(=O)c2cc1OC > 76.9 µM, C=COCCNC(=O)Nc1ccc(Cl)cc1Cl > 76.9 µM, CCN(C(=O)c1coc(=O)c(Br)c1)c1ccc2c(c1)OCO2 > 76.9 µM, Cc1ccccc1CSc1nc2n(n1)C(c1cccs1)C1=C(CCCC1=O)N2 (stereo not given) > 76.9 µM, O=C(NCCC1=CCCCC1)c1ccc(Br)o1 > 76.9 µM, Cc1cc(-c2ccccc2C(=O)O)on1 > 76.9 µM, Cc1ccc(-c2ccc(C(=O)O)[nH]2)cc1 > 76.9 µM, COc1ccccc1-n1c(SCC(=O)NC(C)(C)C)nc(O)cc1=O > 76.9 µM
